From PubChem BioAssay AID540317 (National Center for Advancing Translational Sciences (NCATS), 2011)
In all, about 390,000 compounds went through this assay and about 2,200 (0.56%) were called active. This list was built around the results that the source calls inconclusive (neither active nor inactive); the mix of calls is not that of the screen. Calls come from the whole dose curve; as a rule, active = well fitted inhibition curve with a large enough effect; inconclusive = small, poorly fitted or top-dose-only effect; inactive = no such curve, though single readings can be large or run the other way. Where the call is inconclusive, the potency comes from a doubtful curve fit.

Each compound was assayed against Chromobox protein homolog 1 (Homo sapiens) (UniProt P83916) (assay: HTS for Inhibitors of HP1-beta Chromodomain Interactions with Methylated Histone Tails). Settings: AlphaScreen HP1-beta / biotin-H3K9me3 peptide binding; series mostly up to 114 µM.
Outline: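 AlphaScreen: HP1-beta (50 nM) preformed 30 min with biotin-H3(1-18)K9me3 peptide (50 nM) in PBS pH 7.4, 0.01% Tween-20. Compound added for 30 min at RT, then streptavidin donor/nickel chelate acceptor beads (10 ug/mL) for 30 min.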
Note: nearly all actives have a fitted effect of over 70% in size.
Potency is the fitted concentration of half-maximal effect; tags give direction and shape of the fitted curve.

Chain of UniProt P83916 (P83916 whole entry, looked up): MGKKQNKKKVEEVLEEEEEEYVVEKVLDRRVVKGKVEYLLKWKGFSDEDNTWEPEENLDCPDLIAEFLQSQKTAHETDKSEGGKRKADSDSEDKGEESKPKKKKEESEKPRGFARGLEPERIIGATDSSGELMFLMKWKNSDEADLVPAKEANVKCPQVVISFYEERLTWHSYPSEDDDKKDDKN

Row | SMILES | Potency
1 | COc1ccc(CN2CCCC(C(=O)Nc3cccc(-n4cccn4)c3)C2)c(F)c1 (centres undefined) | inactive
2 | COc1ccc(Nc2ccc([N+](=O)[O-])cc2[N+](=O)[O-])cc1 | inconclusive: 50.1 µM [inhibitor, partial curve]
3 | COc1ccc(C(=O)NC(=S)Nc2ccccc2N2CCOCC2)cc1Br | inconclusive: 31.6 µM [inhibitor, single point]
4 | CC1CCN(CC2CCN(C(=O)NCc3ccccc3)CC2)CC1 | inconclusive: 28.2 µM [inhibitor, single point]
5 | CCN(CC)S(=O)(=O)c1ccc(C(=O)Nc2cc(C)cc(C)c2)cc1 | inactive
6 | CCN(CC)C(=O)C1CCCN(Cc2sccc2C)C1 (centres undefined) | inconclusive: 25.1 µM [inhibitor, full curve]
7 | O=C(CCS(=O)(=O)c1ccc(Br)cc1)Nc1cc(F)ccc1F | active: 31.6 µM
8 | CCn1nc(C)cc1C(=O)N1CCc2c([nH]c3ccccc23)C1c1cc(F)ccc1F (centres undefined) | inconclusive: 50.1 µM [inhibitor, partial curve, poor fit]
9 | Cn1cccc1Cc1nnc(SCC(=O)Nc2ccc3c(c2)OCCO3)n1-c1ccc(F)cc1 | inconclusive: 44.7 µM [inhibitor, partial curve]
10 | CCOC(=O)N1CCC(N2Cc3cccc(C(=O)Nc4ccc(N(CC)CC)cc4C)c3C2=O)CC1 | inconclusive: 12.6 µM [inhibitor, full curve]
11 | Cc1nn(-c2ccccc2)c(N)c1N=Nc1cccc(S(=O)(=O)N2CCOCC2)c1 | inconclusive: 20 µM [inhibitor, full curve]
12 | COc1ccc(N2CCN(C(=O)COc3cccc4ccccc34)CC2)cc1 | inconclusive: 44.7 µM [inhibitor, partial curve]
13 | O=C(CN1CCN(c2ccc(O)cc2)CC1)N(C1CC1)C1CCS(=O)(=O)C1 (centres undefined) | inconclusive: 89.1 µM [inhibitor, single point]
14 | NC(=O)C1CCN(Cc2cccc(OCc3ccccc3)c2)CC1 | inconclusive: 56.2 µM [inhibitor, single point]
15 | CC(NC1CCCC1)C(=O)Nc1ccccc1-c1ccccc1 (centres undefined) | inconclusive: 79.4 µM [inhibitor, partial curve, poor fit]
16 | Cc1ccc(C(=O)c2c(NC(=O)c3ccccc3C)sc(C)c2C)cc1 | inconclusive: 20 µM [inhibitor, partial curve, poor fit]
17 | COc1ccc(OC)c(NC(=O)CSc2nc(=O)n(CCN(C)C)c3c2CCC3)c1 | inactive
18 | CN(C)S(=O)(=O)c1ccc(NCC2COc3ccccc3O2)c([N+](=O)[O-])c1 (centres undefined) | inconclusive: 14.1 µM [inhibitor, partial curve, poor fit]
19 | O=C(NCc1n[nH]c(=S)n1-c1cccc(Cl)c1)c1cccs1 | inconclusive: 89.1 µM [inhibitor, partial curve, poor fit]
20 | S=c1[nH]cc(Cc2ccccc2)s1 | inconclusive: 56.2 µM [inhibitor, single point]
21 | C=C(C)C(=O)Oc1ccc(N=Nc2ccc(C)cc2)ccc1=O | active: 10 µM
22 | COc1ccc([N+](=O)[O-])cc1N(CC(O)CN1C(=O)NC(C)(C)C1=O)S(=O)(=O)c1ccccc1 (centres undefined) | inactive

Row | SMILES | Potency
23 | CN(C)CCN(Cc1ccccc1)c1nccc(N(C)C)c1C#N | inconclusive: 39.8 µM [inhibitor, partial curve]
24 | COc1ccc(Cn2c(O)c(C=Nc3ccc(OC)cc3)c3ccccc3c2=O)cc1 | inactive
25 | O=S(=O)(NCCC(c1ccc(F)cc1)c1ccco1)c1ccccc1 (centres undefined) | inconclusive: 39.8 µM [inhibitor, single point]
26 | Cc1ccc(Cl)cc1-c1ccc(C=Nc2ccc(N3CCOCC3)cc2)o1 | inconclusive: 28.2 µM [inhibitor, partial curve, poor fit]
27 | CCOC(=O)C1(CCc2ccccc2)CCN(C(=O)c2occc2C)CC1 | inconclusive: 50.1 µM [inhibitor, partial curve, poor fit]
28 | O=C(/C=C/c1ccco1)NC(=S)Nc1ccc(C(=O)O)cc1 | active: 70.8 µM
29 | CCCn1nnc(NC(=S)NC(=O)CC)n1 | inconclusive: 89.1 µM [inhibitor, single point]
30 | COc1cccc(NC(=O)NC2(C(F)(F)F)Oc3ccccc3O2)c1 | inactive
31 | Cc1cccc(Cn2cc(S(=O)(=O)c3cccc(Cl)c3)c(=O)c3cc(F)c(N4CCOCC4)cc32)c1 | inactive
32 | CCN(CC)c1ncnc2c1cnn2-c1cc(Cl)ccc1C | inactive
33 | CCOC(=O)c1ccc(NC(=O)CN2CCN(CCN=CC3=C(O)CC(C)(C)CC3=O)CC2)cc1 | inactive
34 | O=C(CN1C(=O)NC(c2ccccc2)(c2ccccc2)C1=O)Nc1ccc(N2CCOCC2)cc1 | inconclusive: 50.1 µM [inhibitor, partial curve]
35 | O=C1c2ccccc2C(=O)N1CCCc1c[nH]c2ccccc12 | inconclusive: 70.8 µM [inhibitor, partial curve]
36 | Cc1[nH]c2ccc(C(=O)N3CCN(c4ccccc4Cl)CC3)cc2c1C | inconclusive: 44.7 µM [inhibitor, partial curve, poor fit]
37 | CC1CCc2c(sc(Nc3nc4c(F)cccc4s3)c2C(N)=O)C1 (centres undefined) | inactive
38 | CCc1cccc(NC(=O)CCc2nc3sc4c(c3c(=O)[nH]2)CCCC4)c1 | inactive
39 | CCOC(=O)c1c(N)ssc1=S | inconclusive: 39.8 µM [inhibitor, partial curve, poor fit]
40 | CNCCCCOc1ccccc1-c1ccccc1 | inconclusive: 89.1 µM [inhibitor, single point]
41 | Cc1nn(CC(=O)N2CCCC2)c(=O)c2cc3cc(F)ccc3n12 | inactive
42 | CCN(CC)C(=S)NC(=O)c1cccnc1 | inconclusive: 50.1 µM [inhibitor, partial curve, poor fit]
43 | CCOc1ccc(CN2CCN(C(=O)c3ccco3)CC2)cc1 | inconclusive: 12.6 µM [inhibitor, full curve, poor fit]
44 | N#C/C(=C/c1ccccc1[N+](=O)[O-])c1nc(C2CC2)cs1 | inconclusive: 50.1 µM [inhibitor, single point]
